Test results: a compilation of properties of binary mixtures (doi:10.2298/jsc190413047v)
Some of these densities may be calculated back from excess volumes.

Assay: xn = mol fraction of the nth substance listed

CCCC[N+]1(C)CCCC1.FC(F)(F)C(F)(F)[P-](F)(F)(F)(C(F)(F)C(F)(F)F)C(F)(F)C(F)(F)F + CC(=O)N(C)C
101 kPa
Conditions	mass density [kg/m3]
298.15 K, x2 = 0.1531	1551.5
303.15 K, x1 = 0.0182	974.1
313.15 K, x2 = 0.2922	1498.5
313.15 K, x2 = 0.3952	1465.5
318.15 K, x2 = 0.901	1103.5
323.15 K, x2 = 0.4988	1414.5

CCCCn1cc[n+](C)c1.FC(F)(F)C(F)(F)[P-](F)(F)(F)(C(F)(F)C(F)(F)F)C(F)(F)C(F)(F)F + CC(=O)N(C)C
mass density [kg/m3], 100 kPa
Conditions	293.15 K	298.15 K	303.15 K	308.15 K	313.15 K	318.15 K	323.15 K
x1 = 0.0178	984.6	980	975.2	970.4	965.5	960.5	955.5
x2 = 0.0592	1618.8	–	1607	1601.2	1595.3	1589.4	1583.4
x2 = 0.0907	1611.9	1605.9	1600.2	1594.3	1588.5	1582.5	1576.5
x2 = 0.1412	–	–	1588.6	1582.7	1576.8	1570.9	1564.8
x2 = 0.1896	–	1582.2	1576.7	1570.7	1564.8	1558.9	1552.9
x2 = 0.301	1556.2	–	1545.2	–	1533.3	1527.4	1521.5
x2 = 0.3961	1523.6	1518.3	–	1506.7	1500.8	1495.1	1489.1
x2 = 0.4456	1504	1498.8	1493	1487.2	1481.3	1475.6	1469.8
x2 = 0.4959	1481.9	–	1470.9	1465.1	1459.3	1453.6	–
x2 = 0.6005	–	1421.5	1416	1410.4	–	1398.8	1393.2
x2 = 0.6994	1359.9	–	1349	1343.5	1337.9	1332.1	1326.6
x2 = 0.8063	1262	1256.7	–	1246	1240.6	1235.1	–
x2 = 0.8993	1141.4	1136.4	1131.3	1126.1	–	1115.6	1110.3
x2 = 0.9329	1085.4	–	1075.5	1070.4	–	–	1054.9

O=C1CCCO1 + CCCCCCCCn1cc[n+](C)c1.O=S(=O)([N-]S(=O)(=O)C(F)(F)F)C(F)(F)F
Conditions	mass density [kg/m3]
293.15 K, 100 kPa, x1 = 1	1129.5

O=C1CCCO1 + CCCCCC[n+]1ccn(C)c1.O=S(=O)([N-]S(=O)(=O)C(F)(F)F)C(F)(F)F
Conditions	mass density [kg/m3]
293.15 K, 100 kPa, x1 = 1	1129.5

CCCCN(C=O)CCCC + CCCC[N+]1(C)CCCC1.FC(F)(F)C(F)(F)[P-](F)(F)(F)(C(F)(F)C(F)(F)F)C(F)(F)C(F)(F)F
101 kPa
Conditions	mass density [kg/m3]
293.15 K, x1 = 0.0989	1548.5
293.15 K, x1 = 0.2246	1494.5
298.15 K, x1 = 0.5997	1276.5
308.15 K, x1 = 0.3201	1433.5
313.15 K, x1 = 0.7001	1185.5
313.15 K, x1 = 0.8502	1046.5
323.15 K, x1 = 0.3201	1417.5
323.15 K, x1 = 0.4007	1375.5

CCNC=O + CCCC[N+]1(C)CCCC1.FC(F)(F)C(F)(F)[P-](F)(F)(F)(C(F)(F)C(F)(F)F)C(F)(F)C(F)(F)F
mass density [kg/m3], 101 kPa
Conditions	x1 = 0.4473	x1 = 0.8492	x1 = 0.9247
298.15 K	1484.5	–	–
303.15 K	–	1230.5	1119.5

O=C1CCCO1 + CCCC[N+]1(C)CCCC1.O=S(=O)([N-]S(=O)(=O)C(F)(F)F)C(F)(F)F
100 kPa, x1 = 1
Conditions	mass density [kg/m3]
293.15 K	1129.2
298.15 K	1124.3
303.15 K	1119.3
308.15 K	1114.3
313.15 K	1109.2
318.15 K	1104.1
323.15 K	1098.9

CC1CC(=O)O1 (centres undefined) + CCCC[n+]1ccn(C)c1.O=S(=O)([N-]S(=O)(=O)C(F)(F)F)C(F)(F)F
100 kPa
Conditions	mass density [kg/m3]
293.15 K, x1 = 0.8474	1207.5
323.15 K, x1 = 0.186	1385.5

CC1CCC(=O)O1 (centres undefined) + CCCC[n+]1ccn(C)c1.O=S(=O)([N-]S(=O)(=O)C(F)(F)F)C(F)(F)F
100 kPa
Conditions	mass density [kg/m3]
308.15 K, x1 = 0.8002	1208.5
318.15 K, x1 = 0.9495	1084.5

CC1COC(=O)O1 (centres undefined) + CCCC[n+]1ccn(C)c1.O=S(=O)([N-]S(=O)(=O)C(F)(F)F)C(F)(F)F
101 kPa
Conditions	mass density [kg/m3]
298.15 K, x1 = 0.3098	1409.5
298.15 K, x1 = 0.4161	1396.5
308.15 K, x1 = 0.5996	1355.5
313.15 K, x1 = 0.4979	1369.5

O=C1CCCCCO1 + CCCC[n+]1ccn(C)c1.O=S(=O)([N-]S(=O)(=O)C(F)(F)F)C(F)(F)F
100 kPa
Conditions	mass density [kg/m3]
293.15 K, x1 = 0.8998	1161.5
298.15 K, x1 = 0.3691	1372.5
303.15 K, x1 = 0.5097	1331.5

O=C1CCCCO1 + CCCC[n+]1ccn(C)c1.O=S(=O)([N-]S(=O)(=O)C(F)(F)F)C(F)(F)F
100 kPa
Conditions	mass density [kg/m3]
293.15 K, x1 = 1	1108.5
313.15 K, x1 = 0.7012	1281.5

O=C1CCCO1 + CCCC[n+]1ccn(C)c1.O=S(=O)([N-]S(=O)(=O)C(F)(F)F)C(F)(F)F
mass density [kg/m3], 100 kPa
Conditions	293.15 K	298.15 K	303.15 K	308.15 K	313.15 K	318.15 K	323.15 K
x1 = 0.0523	1435.2	1430.2	1425.3	1420.5	1415.6	1410.6	1405.6
x1 = 0.0933	1431.7	–	1421.8	1417	–	1407.1	1402.1
x1 = 0.1974	1421.5	1416.5	1411.6	1406.8	1401.8	1396.9	–
x1 = 0.3036	1408.8	1403.9	–	1394.1	1389.1	1384.1	–
x1 = 0.4025	1394.3	1389.4	1384.4	1379.6	–	1369.6	1364.5
x1 = 0.4964	–	1372.4	1367.5	–	1357.6	1352.6	1347.5
x1 = 0.6003	1353.5	1348.6	–	1338.7	–	–	1323.6
x1 = 0.6489	1339.9	1335	1330	1325.1	1320.1	1315	1309.9
x1 = 0.7001	–	1318.4	1313.4	–	–	1298.4	1293.3
x1 = 0.7987	1282.7	1277.8	1272.8	1267.8	1262.8	1257.7	1252.6
x1 = 0.9046	1219.1	–	1209.2	1204.2	1199.1	1194	1188.8
x1 = 0.924	1204.1	–	1194.2	1189.2	1184.1	1179	1173.8
x1 = 0.9493	1182.3	1177.3	1172.3	1167.3	–	1157.1	1151.9
x1 = 1	1129.2	1124.3	1119.3	–	–	–	–
x2 = 0.0151	–	1141.6	1136.6	1131.6	–	1121.4	1116.2

O + CCCC[n+]1ccn(CC)c1.[Br-]
Conditions	mass density [kg/m3]
323.15 K, 100 kPa, x1 = 1	988

CCCCN(C=O)CCCC + CCCCn1cc[n+](C)c1.FC(F)(F)C(F)(F)[P-](F)(F)(F)(C(F)(F)C(F)(F)F)C(F)(F)C(F)(F)F
mass density [kg/m3], 100 kPa
Conditions	293.15 K	298.15 K	303.15 K	308.15 K	313.15 K	318.15 K	323.15 K
x1 = 0.053	1607.8	1602.1	–	1590.5	–	1578.9	1573
x1 = 0.0949	1589.6	1583.8	1578.2	1572.4	1566.6	1560.9	–
x1 = 0.1951	–	1538.4	1532.9	1527.1	1521.4	1515.8	1510
x1 = 0.2975	1493.2	1487.7	1482.3	1476.7	1471.1	–	1459.8
x1 = 0.4051	1433	1427.7	1422.4	1417	1411.5	1406.1	–
x1 = 0.4999	1373.1	–	1362.8	1357.5	1352.1	1346.8	1341.4
x1 = 0.5987	–	1297.4	1292.4	1287.3	1282.2	1277	1271.8
x1 = 0.6947	1224.4	1219.6	1214.7	1209.8	1204.9	1200	1194.9
x1 = 0.8017	–	1119	1114.4	1109.8	1105.2	1100.6	1095.7
x1 = 0.8491	1073.2	–	1064.3	1059.9	1055.3	1050.8	1046.1
x1 = 0.9092	1002.8	998.6	994.4	990	–	981.3	976.8
x1 = 0.9306	975.8	971.6	967.4	–	–	954.5	950.1
x1 = 0.9656	928.7	924.6	–	916.5	912.3	908	–

O=C1CCCO1 + CCCn1cc[n+](C)c1C.O=S(=O)([N-]S(=O)(=O)C(F)(F)F)C(F)(F)F
Conditions	mass density [kg/m3]
293.15 K, 100 kPa, x1 = 1	1129.5
